The text below walks through data of PubChem BioAssay AID488969 (Vanderbilt High Throughput Screening Facility, 2010).

Whole data set: some 110,000 compounds, median “z-score” near -0.1, cut for the highest 2% near 2. Some of the results follow. Calls of active or inactive are those of the source.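 How the source made its calls: active means z-score in the third read window above 3 or below -3; inactive means the rest.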

The target of this test is Metabotropic glutamate receptor 8 (Rattus norvegicus) (UniProt P70579). The experiment in a line: rat mGluR8 modulators via GIRK flux, primary screen, cell-based, thallium flux, HTS (AID 488969). To be noted: HEK293 rat mGluR8, GIRK (G protein-gated inwardly rectifying potassium channel) thallium flux, FluoZin2; at 10 µM; stronger effect = higher value; submaximal glutamate (EC20) added with thallium.
UniProt P70579, sequence (P70579 whole entry, looked up): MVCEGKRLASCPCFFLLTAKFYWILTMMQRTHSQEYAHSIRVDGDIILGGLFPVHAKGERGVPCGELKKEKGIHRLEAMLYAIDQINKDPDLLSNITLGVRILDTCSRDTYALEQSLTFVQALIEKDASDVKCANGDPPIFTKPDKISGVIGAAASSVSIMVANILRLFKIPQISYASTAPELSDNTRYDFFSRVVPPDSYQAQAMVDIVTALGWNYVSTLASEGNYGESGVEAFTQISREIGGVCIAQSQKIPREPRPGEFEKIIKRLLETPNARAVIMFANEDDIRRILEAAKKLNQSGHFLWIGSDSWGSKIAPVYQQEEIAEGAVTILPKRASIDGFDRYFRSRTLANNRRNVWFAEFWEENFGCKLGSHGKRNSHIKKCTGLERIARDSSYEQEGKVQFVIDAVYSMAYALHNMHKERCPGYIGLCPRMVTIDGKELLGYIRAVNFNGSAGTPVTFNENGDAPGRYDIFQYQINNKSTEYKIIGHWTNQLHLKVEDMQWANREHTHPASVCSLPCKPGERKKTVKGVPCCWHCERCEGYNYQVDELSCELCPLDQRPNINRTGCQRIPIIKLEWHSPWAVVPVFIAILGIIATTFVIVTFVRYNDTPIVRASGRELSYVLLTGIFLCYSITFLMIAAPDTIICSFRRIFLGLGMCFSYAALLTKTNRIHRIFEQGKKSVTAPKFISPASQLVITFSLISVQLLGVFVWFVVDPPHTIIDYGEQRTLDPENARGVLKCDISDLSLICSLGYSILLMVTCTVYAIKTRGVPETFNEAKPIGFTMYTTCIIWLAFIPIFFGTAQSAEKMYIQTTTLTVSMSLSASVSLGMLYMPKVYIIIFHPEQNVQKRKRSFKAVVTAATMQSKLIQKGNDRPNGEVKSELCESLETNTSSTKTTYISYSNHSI
Turning to `O=C(Nc1cccc(Cl)c1)c1ccc(NCC2CCCO2)c([N+](=O)[O-])c1` (stereo not drawn), the z-score was -0.232.
For `Nc1nnnn1/N=C/c1ccco1` the value was -0.0269.
For `O=C(c1c(O)c2ccccc2oc1=O)C1CCC1` the value was 0.111; for `O=C(COC(=O)CCC1CCCC1)Nc1ccc(Cl)cn1`, 0.0135.
As to `COc1ccc(C2CC(c3c(-c4ccccc4)c4cc(Cl)ccc4[nH]c3=O)=NN2S(C)(=O)=O)cc1` (stereo not drawn), the z-score is -0.172.
`O=C(O)c1cccc(NC(=O)C2C3C=CC(C3)C2C(=O)O)c1` (stereo not drawn) gave a z-score of -0.171.
For `CCNC(=S)Nc1nc2c(cc1C(=O)OCC)CCCC2` the value was active: 8.73; for `COc1ccc(-n2c3c(cc(C(=O)Nc4ccc(C)cc4)c2=O)C(=O)CCC3)cc1`, 0.0839; for `COc1ccc(Nc2nc(C)cc(C)c2C(N)=O)cc1`, -0.148.
`COc1ccc2cnn(Cc3ccccc3)c(=O)c2c1OC` returned a z-score of 0.037.
For `O=C1CC(c2ccccc2)CC(O)=C1C=NCc1ccc(Cl)c(Cl)c1` (stereo not drawn) the value was 0.436; for `COc1cc(C=NCC2OCCc3ccccc32)cc(OC)c1` (stereo not drawn), -0.22.
For `O=C(NCc1ccncc1)Nc1ccc(Cl)cc1Cl` the value was -0.3.
Under `O=C(Nc1ccccc1)c1ccc2c(c1)OCO2` stands -0.0124.
Consider `COc1ccc(CNc2n[nH]c(NCc3ccc(OC)c(OC)c3)n2)cc1OC`, for which the z-score was determined as 0.13.
`C=CCN1C(=O)C(CC(=O)Nc2ccc(OC)cc2)N(Cc2ccco2)C1=S` (stereo not drawn) displayed a z-score of -0.16.
The compound `COc1ccc(S(=O)(=O)N(CC(=O)O)c2ccccn2)cc1` returned a z-score of 1.42.
Under `COc1ccc(NS(=O)(=O)c2ccc(Br)s2)cc1OC` stands 2.11; under `CCCC(=O)OCCNc1cc(SCc2ccco2)c2nonc2c1[N+](=O)[O-]`, 0.14.
For `O=C(c1ccc(-n2cccc2)cc1)N1CCN(Cc2ccccc2)CC1` the value was -0.138; for `O=C(CN(C1CCCCC1)S(=O)(=O)c1ccc(F)cc1)NCc1ccncc1`, 0.0244; for `CCCCNC(=O)c1ccccc1NC(=O)CN(c1ccccc1)S(=O)(=O)N(C)C`, 2.11.
Under `CCOC(=O)C(C)Sc1nnc(-c2c[nH]c3ccccc23)n1C` (stereo not drawn) stands active: 4.19; under `Cc1ccc(S(=O)(=O)NCCCNS(C)(=O)=O)cc1`, 0.0948.
`CCc1c(C)c2c(C)[nH]nc2oc1=O` came in with a z-score of -0.453.
The compound `O=S(=O)(Cc1cc(Oc2ccccc2)nc(-c2ccccc2)n1)c1ccccc1` displayed a z-score of -1.25.
For the compound `CCN(CC)S(=O)(=O)c1cc(NC(=O)Cn2cnc3ccccc3c2=O)ccc1C`, the z-score was active: 3.32.
For `Cc1onc(-c2ccccc2)c1C(=O)NCC1COc2ccccc2O1` (stereo not drawn) the value was -0.111.
Under `COc1ccc(OC)c(/C=N/NC(=O)CCN2CCN(C(c3ccccc3)c3ccccc3)CC2)c1` stands -0.329; under `CCN1C(=O)c2ccccc2S(=O)c2ccc(C(=O)N3CCCCCC3)cc21` (stereo not drawn), -0.586; under `CCN1CCc2nc(NC(=O)C(c3ccccc3)c3ccccc3)sc2C1`, -0.647.
As to `O=C(O)CCCCC1SCC2NC(=O)NC21` (stereo not drawn), the z-score is -0.163.
For `Cc1cccc(OCCCC(=O)Nc2ccccc2C(F)(F)F)c1` the value was -0.0942; for `Cc1ccc2c(c1)C=CC(C)(C)S2=O` (stereo not drawn), -0.163.
Under `CCOC(=O)C1C(c2cc(OC)c(OC)c(OC)c2)NC(=S)NC1(O)C(F)(F)F` (stereo not drawn) stands -0.494.
`O=C(CNC(=O)Cn1cnc2sc3c(c2c1=O)CCCC3)NCc1ccccn1` registered a z-score of 0.515.
Under `Cc1cccc(-c2n[nH]c(=S)n2Cc2ccccc2)c1` stands 1.74; under `Cc1c(NC(=O)c2ncn[nH]2)cccc1-c1nc2ccccc2s1`, 0.173.
`CCC(N=c1cc(-c2ccc(OC)c(OC)c2)oc2ccc(C)cc12)C(=O)O` (stereo not drawn): the z-score was -0.185.
For `COc1ccc(CN(C#N)c2nc(SC)nc(N(C)C)n2)cc1` the value was -0.283; for `Cc1ccc(C(=O)NNS(=O)(=O)c2ccccc2[N+](=O)[O-])cc1`, 0.000248.
The compound `COC(=O)c1ccc(NC(=O)c2ccccc2)o1` returned a z-score of -0.0143.
`CC(Sc1n[nH]c(N)n1)C(=O)C12CC3CC(CC(C3)C1)C2` (stereo not drawn) showed a z-score of -0.124.
For the compound `COc1ccc(-c2cc(C(=O)OCC(=O)N(C)C)c3ccccc3n2)cc1`, the z-score was -0.683.
`O=C(CSc1nc(-c2ccco2)cc(C(F)(F)F)n1)Nc1ccccc1C(F)(F)F` showed a z-score of -0.404.
For `O=C(/C=C/c1ccccc1)c1ccccn1`, the z-score was -0.107.
For `COCCn1nnnc1C(c1cccs1)N1CCN(c2cccc(C(F)(F)F)c2)CC1` (stereo not drawn) the value was 0.0215; for `O=C(Nc1ncccc1Cl)C(Sc1ccccc1)c1ccccc1` (stereo not drawn), -0.096; for `Cc1sc2ncnc(NCc3ccccc3)c2c1C`, -0.366.
Under `Cc1cc(Cl)ccc1OCC(=O)NCCOc1nc(N2CCCCC2)nc(N2CCOCC2)n1` stands -0.876; under `Cc1ccc(C2C(C(=O)c3sc(C)nc3C)=C(O)C(=O)N2CCN(C)C)o1` (stereo not drawn), 0.405.
Compound `O=C(NCSC1=NCCS1)c1ccccc1` came in with a z-score of 0.175.
Under `COc1cc(/C=N/Nc2nn3cnnc3c3ccccc23)ccc1O` stands -0.551; under `CCOC(=O)C1CCN(C(=O)COc2ccc(Cl)cc2Cl)CC1`, -0.471.
Under `CC(=O)Oc1ccc(OC(C)=O)c(SCCCCCN2CCOCC2)c1` stands -0.0266.
Under `CCCS(=O)(=O)N1CCCC(C(=O)NCCc2ccc(OC)c(OC)c2)C1` (stereo not drawn) stands -0.113; under `Cc1ccc(C(=O)Nc2ccc(Cl)cn2)cc1S(=O)(=O)N1CCOCC1`, -0.00908.
In turn, `Cc1ccc(S(=O)(=O)NC(c2ccccc2)C(C)C(=O)n2nc(C)cc2C)cc1` (stereo not drawn) displayed a z-score of -0.193.
Consider `CCn1nc(NC(=O)c2ccco2)c2cc3ccc(C)cc3nc21`, for which the z-score was -0.15.
For `C=CCNC(=O)c1ccc(N(CC=C)S(C)(=O)=O)cc1` the value was -0.0506.
Under `Cc1ccc(-n2ncc3c(N4CCCC4)ncnc32)c(C)c1` stands 0.147; under `CCCCNC(=O)COC(=O)c1cc(S(=O)(=O)N2CCCCCC2)ccc1OC`, 0.28; under `CON1C(=O)C(=O)N(OC)C2CCCCC21` (stereo not drawn), -0.198.
For `COc1ccc([N+](=O)[O-])cc1NC(=O)CC(C)c1ccccc1` (stereo not drawn), the z-score was -0.513.
`COc1ccc(-n2c(SCC(=O)NCc3ccco3)nnc2-c2c[nH]c3ccccc23)cc1` gave a z-score of -0.512.
Under `CCN=C1SC(CC(=O)NC2CCCCC2)C(=O)N1CC` (stereo not drawn) stands 0.215; under `COc1ccc(N(C(=O)c2ccccc2C)S(=O)(=O)c2cccs2)cc1`, -1.15.
Under `O=S(=O)(N1CCCCC1)N1CCN(CC(O)COc2ccc3cc(Br)ccc3c2)CC1` (stereo not drawn) stands -0.125; under `COc1ccccc1NC(C)C(=O)Nc1ccc(C(C)=O)cc1` (stereo not drawn), -0.0352; under `O=C(Nc1ccc(Cl)cc1)C1CCCN(S(=O)(=O)c2cnc[nH]2)C1` (stereo not drawn), 0.605.
`COc1ccc(C(=O)C2CCN(C(=O)c3ccc(C)cc3)CC2)cc1` had a z-score of -0.285.
For the compound `Cc1cccc(C(C)C)c1NC(=O)CSc1nncn1C`, the z-score was -0.617.
For `Cc1ccccc1Cn1ccc(-c2ccc(Cl)cc2)c(C#N)c1=O` the value was -0.0203.
With `O=C1C2C3C=CC(C3)C2C(=O)N1CNc1ccccc1` (stereo not drawn), the z-score was 0.175.
Under `CC(c1ccccc1)N1C(=O)c2ccc(C(=O)NCc3ccco3)cc2C1=O` (stereo not drawn) stands -0.54; under `Cc1nc(C)c(CC(=O)N/N=C/c2ccc(O)cc2)c(=O)[nH]1`, -0.137; under `Cc1ccc(C(=O)N/C(=C\c2ccc(Br)cc2)c2nc(=S)[nH][nH]2)cc1`, -0.0138.
The compound `O=C(CCC1CCCCC1)NC1=NCCS1` yielded a z-score of -0.119.
For the compound `COc1ccc(-c2nnc(SCC(=O)NC(=O)NCc3ccco3)o2)cc1`, the z-score amounted to 0.00322.
Under `COc1ccc(OC)c(S(=O)(=O)N2CCC(C(=O)NCc3ccccc3OC)CC2)c1` stands -0.549; under `Clc1ccc(OCc2nnnn2-c2ccccc2)cc1`, -0.208.
Under `Cc1cc(S(=O)(=O)N2CCN(c3ccccc3O)CC2)c(C)s1` stands -0.601; under `O=C(CSc1nnc(-c2cccs2)o1)N1CCOCC1`, 0.0399; under `CSc1ccccc1NC(=O)c1ccccc1N(Cc1ccccc1)S(C)(=O)=O`, -0.0768.
Under `CC(=C/c1ccccc1)/C=N/NC(=O)CSc1nc(C)cc(C)n1` stands -0.195; under `CCSC1=N/C(=C\c2cccc(F)c2)C(=O)S1`, 0.803; under `N#CCc1nc2c3c4c(sc3ncn2n1)CCCC4`, 0.301.
`CC(=O)c1ccc(OCC(O)CN2C(C)CCCC2C)cc1` (stereo not drawn) gave a z-score of -0.288.
Compound `COc1ccc(-n2cnnc2SC(C)C(=O)Nc2cccc([N+](=O)[O-])c2)cc1` (stereo not drawn) had a z-score of -0.431.
Under `COC(=O)c1cccc(NC(=O)c2cccc(OC)c2)c1` stands -0.141; under `O=C1c2ccccc2C(=O)N1CCc1nc2ccccc2c(=O)n1CCCn1ccnc1`, 0.0357.
For `COc1cccc2c(=O)n(CC(=O)Nc3ccccc3F)ccc12` the value was 0.461; for `CCOC(=O)C1CCN(C(=O)C(C)Sc2ccc(Cl)cc2)CC1` (stereo not drawn), -0.123; for `CC(C)C(NC(=O)c1ccc(C(C)(C)C)cc1)C(=O)NC1=NCCS1` (stereo not drawn), -1.01.
For `O=C(NCC1CCCO1)c1c(O)c2cccc3c2n(c1=O)CC3` (stereo not drawn) the value was 0.105; for `C/C(CC(=O)Nc1ccccc1C)=N\NC(=O)Cc1csc(N)n1`, -0.16; for `COc1cccc(/C=N/NC(=O)c2cnccn2)c1`, 0.441.
`CC(C)(C)c1cc(C(=O)O)nn1-c1ccccc1` came in with a z-score of -0.0651.
On to `S=c1[nH]nc(-c2ccc(Br)o2)n1Cc1ccccc1`, for which the z-score was active: 3.42.
Under `CN1C(=O)c2oc3ccccc3c(=O)c2C1c1ccccn1` (stereo not drawn) stands active: 8.59; under `CCN(CC)CCCn1c(=S)[nH]c2cc(OC)c(OC)cc2c1=O`, -0.0622; under `COC(=O)c1c(NC(=O)/C=C/c2ccco2)sc2c1CCC2`, 0.997.
Consider `Cc1nnc(SCC(=O)Nc2ccc3c(c2)OCCO3)n1CC1CCCO1` (stereo not drawn), for which the z-score was -0.241.
For `Cc1ccc(-c2nnc3ccc(SCC(=O)N4CCCc5ccccc54)nn23)cc1` the value was -1.25; for `CC1CN(c2ncnc3c2oc2ccccc23)CC(C)O1` (stereo not drawn), -0.819; for `CCOC(=O)c1cc2c(=O)n3ccccc3nc2n(CCCOC)c1=NC(=O)C(C)(C)C`, 0.0485.
For `Cc1ccc2c(c1)N(CCC(=O)NC(C)C)C(=O)CO2` the value was 0.439; for `O=C(O)c1oc2ccccc2c1CSc1ccccn1`, active: -3.14; for `COc1ccc(CC(=O)Nc2ccc(S(=O)(=O)Nc3cc(C)on3)cc2)cc1OC`, -0.00554.
`CCOc1cccc(OCCOCCOc2ccccc2C(C)=O)c1`: the z-score amounted to 0.0696.
Under `Cc1cc(C)nc(SCC(=O)c2ccc([N+](=O)[O-])cc2)n1` stands 0.0207; under `COc1ccc(CCNC(=O)c2cnn3ccccc23)c(OC)c1OC`, 0.0444.
For `COc1ccc(C(=O)Nc2ccc(CN3CCOCC3)cc2)cc1` the value was -0.31.
